In PubChem BioAssay (NCATS):
Inconclusive results, whose numbers are uncertain, are shown with a selection of clear calls. Where a call stands in place of a potency, no number is given. Potencies of inconclusive entries are doubtful fits and often do not repeat. Calls of active or inactive are those of the source. Calls follow the shape of the dose curve; as a rule, active = well fitted inhibition curve with a large enough effect; inconclusive = small, poorly fitted or top-dose-only effect; inactive = no such curve, though single readings can be large or run the other way. Bridge positions count the residues as written; N and C are the ends. Square brackets hold non-standard residues; d marks the D form. Peptide text beside a SMILES is read from it. * marks the point of attachment. ξ: configuration not given here. Octanoyl(6-Me) = CCC(C)CCCCC(=O)*; ξThr(3R) = C[C@@H](O)C(N)C(=O)O; dDab = NCC[C@@H](N)C(=O)O; Dab = NCC[C@H](N)C(=O)O

Assay: qHTS to identify inhibitors of the type 1 interferon - major histocompatibility complex class I in skeletal muscle: primary screen against the NCATS Mechanism Interrogation Plate v5.0 (MIPE) Libary (AID 1347411); also: nearly all actives have a fitted effect of over 65% in size
Conditions: iHSKM cells + IFN-b, HiBiT-tagged MHC-I luminescence, 24 h; series mostly up to 45.8 µM
Procedure, shortened: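 Immortalized human C25cl48 myoblasts with HiBit knocked into endogenous HLA-B*08:01 were stimulated with 4.0 ng/ml IFN-beta and exposed to compounds (11-point 1:3 titration, top 46 uM final) for 24 hrs at 37 C; HiBiT lytic luminescence measured.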
Potency is read from the fitted curve at half-maximal effect; tags tell the direction and shape of the fitted curve.

Compound	Potency
Cc1cc(-c2ccc(CC(=O)Nc3ccc(-c4cccnc4)cc3)cc2)ccn1	inactive
Cc1cccc(-c2nn(C(=S)Nc3ccccc3)cc2-c2ccnc3ccccc23)n1	inactive
CC(C)(C)NCC(O)c1ccc(O)c(CO)c1 (stereo unspecified)	inactive
CC(C)(C)c1nc(-c2cccc(NS(=O)(=O)c3c(F)cccc3F)c2F)c(-c2ccnc(N)n2)s1	inconclusive: 1.04 µM [inhibitor, full curve]
CCOC(CN1C(=O)[C@](CC(=O)Nc2ccc(C)cc2)(NC(=O)Nc2ccc(C)cc2)c2ccccc21)OCC	inactive
CN1CCN2c3ncccc3Cc3ccccc3C2C1 (stereo unspecified)	inactive
CC(C)C(C)C=CC(C)C1CCC2C3=CC=C4CC(O)CCC4(C)C3CCC21C (stereo unspecified)	inactive
CCCCCCCCCCCCCC(=O)N[C@H](CO)[C@H](O)c1ccc([N+](=O)[O-])cc1	inconclusive: 52.3 µM [inhibitor, single point]
CNCCCC12CCC(c3ccccc31)c1ccccc12	inactive
Nc1ccn([C@@H]2O[C@H](CO)[C@@H](O)[C@H]2O)c(=O)n1	inactive
CN(C)S(=O)(=O)c1ccc2c(c1)C(=Cc1cc3c([nH]1)CCCC3)C(=O)N2	inconclusive: 13.1 µM [inhibitor, partial curve]
CN(C)Cc1cccc(N=C(c2ccccc2)c2c(O)[nH]c3cc(C(=O)N(C)C)ccc23)c1	inconclusive: 18.6 µM [inhibitor, partial curve, poor fit]
O=C(Nc1c(Cl)cncc1Cl)c1ccc(OC(F)F)c(OCC2CC2)c1	inactive
CCCOc1ccc2nc(NC(=O)OC)[nH]c2c1	inconclusive: 0.33 µM [inhibitor, full curve]
N#CC(c1ccnc(NCCc2cccnc2)n1)c1nc2ccccc2s1 (stereo unspecified)	active: 14.7 µM
COc1ccc(CC2SC(=O)NC2=O)cc1C(=O)NCc1ccc(C(F)(F)F)cc1 (stereo unspecified)	inactive
Clc1ccc(C(c2ccccc2Cl)C(Cl)Cl)cc1 (stereo unspecified)	inconclusive: 29.4 µM [inhibitor, partial curve, poor fit]
CCC(=O)N[C@H]1CC[C@H](C(=O)N(C)c2ccc(-c3nc4ccccc4o3)cc2)C1	inactive

Compound	Potency
CN(C)Cc1ccc(-c2nc3cccc4c3n2CCNC4=O)cc1	active: 14.7 µM
CCOC(=O)C(C)(C)Oc1ccc(Cl)cc1	inactive
COc1ncnc(NS(=O)(=O)c2ccc(N)cc2)c1OC	inactive
Clc1ccc(COC(Cn2ccnc2)c2ccc(Cl)cc2Cl)cc1 (stereo unspecified)	inconclusive: 46.6 µM [inhibitor, single point]
CN(CCOc1ccc(CC2SC(=O)NC2=O)cc1)c1ccccn1 (stereo unspecified)	inactive
Cc1ccc(C(=O)N(CCCN)[C@@H](c2oc3cc(Cl)ccc3c(=O)c2Cc2ccccc2)C(C)C)cc1	inconclusive: 29.4 µM [inhibitor, single point]
CCC(C)CCCCC(=O)N[C@@H](CCN)C(=O)NC(C(=O)N[C@H](CCN)C(=O)N[C@@H]1CCNC(=O)C([C@@H](C)O)NC(=O)[C@@H](CCN)NC(=O)[C@@H](CCN)NC(=O)[C@@H](CC(C)C)NC(=O)[C@H](Cc2ccccc2)NC(=O)[C@H](CCN)NC1=O)[C@@H](C)O (stereo partly drawn) ({Octanoyl(6-Me)}-[Dab][ξThr(3R)][dDab][dDab][Dab]F[dL][dDab][dDab][ξThr(3R)]; lactam 4-C)	inactive
COc1ccc2cc(-c3nc(-c4ccc(S(C)=O)cc4)[nH]c3-c3ccncc3)ccc2c1 (stereo unspecified)	inconclusive: 46.6 µM [inhibitor, single point]
N[C@@]1(C(=O)O)CS(=O)(=O)[C@H]2[C@H](C(=O)O)[C@H]21	inactive
CNC(=O)c1cc(COc2nnc(Nc3ccc(Cl)cc3)c3ccoc23)ccn1	inconclusive: 33 µM [inhibitor, partial curve, poor fit]
O=C(Nc1ccccc1Br)N[C@@H]1CCN(c2ccc(C(F)(F)F)cn2)C1	inactive
CCCCC(C)(C)[C@H](O)C=C[C@H]1[C@H](O)CC(=O)[C@H]1CC=CCCCC(=O)O	inactive
COc1cc([C@@H]2c3cc4c(cc3[C@H](O)[C@H]3COC(=O)[C@@H]23)OCO4)cc(OC)c1OC	inconclusive: 2.34 µM [inhibitor, full curve]
CCOC(=O)C1=C(O)C(=O)N(Cc2ccccc2)C1	inactive
Cc1ccc(Nc2cc(-c3cccc(N4C(=O)c5ccccc5C4=O)c3)ncn2)cc1NS(C)(=O)=O	inconclusive: 16.5 µM [inhibitor, partial curve, poor fit]
Clc1cc(Cl)cc(CNc2ncncc2-c2ccc3c(c2)OCO3)c1	inconclusive: 37 µM [inhibitor, single point]
CN1C(C(=O)Nc2ccccn2)=C(O)c2ccccc2S1(=O)=O	inactive
COc1cc2ncnc(-n3nc(-c4ccccn4)nc3N)c2cc1OC	inconclusive: 2.94 µM [inhibitor, partial curve]
